Source: article PMC5842915 (Biochemistry, 2017)

B1: full-length, human Beclin-1 (BECN1) (natural protein)
chain: not shown

Experiments:
[1] = target: V250A/M254A/L261A mutant of full-length BECN1 (human, UniProt Q14457, V250A | M254A | L261A); experiment: ITC
[2] = target: B1; experiment: ITC
[3] = target: BECN^1-265 (BECN1 residues 1-265, BARA-less construct) (human, UniProt Q14457 1-265); experiment: ITC
[4] = target: T1, BECN1 BH3 peptide (residues 97-126) (human); experiment: ITC
T1 peptide: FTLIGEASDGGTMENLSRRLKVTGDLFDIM

[5] = target: the molecule itself; experiment: AUC
[6] = target: the molecule itself; experiment: SEC-MALS

Row | Binder | Kd [1] [µM] | Kd [2] [µM] | dH [2] [kcal/mol] | stoichiometry N [2] | Kd [3] [µM] | dH [3] [kcal/mol] | stoichiometry N [3] | dH [4] [kcal/mol] | stoichiometry N [4] | Kd [5] [µM] | Kd [6] [µM]
1 | human Bcl-2 ([…]) (domain or fragment) not shown | 2.7 ± 0.7 | 4.3 | -7.9 | 1.01 | 9.1 | -8.3 | 0.87 | -3.8 | 1.02 |  | 
2 | B1 |  |  |  |  |  |  |  |  |  | 0.39 | ~0.48
